# Measurements published in PubChem BioAssay AID504832 (National Center for Advancing Translational Sciences (NCATS), 2011).
# About 18,000 (5.8%) of roughly 310,000 compounds were called active. Inconclusive means that the source gave no clear call. Such entries were picked first, then a sample of the others. Calls come from the whole dose curve; as a rule, active = well fitted inhibition curve with a large enough effect; inconclusive = small, poorly fitted or top-dose-only effect, or another doubt; inactive = no such curve, though single readings can be large or run the other way. Potencies of inconclusive entries are left out as doubtful fits.
# Test: Primary qHTS for delayed death inhibitors of the malarial parasite plastid, 48 hour incubation
# Details: P. falciparum luciferase growth in erythrocytes; series mostly up to 28.7 µM; activity change, negative = inhibition: at the top concentration
# Summary of the method: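 Erythrocytes infected with P. falciparum carrying an integrated firefly luciferase reporter (2% hematocrit, 0.1% parasitemia final) were exposed to compounds in RPMI 1640 with 0.5% Albumax at 37 C, 5% CO2. Growth inhibition was scored as reduced luminescence.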
# % is set by controls: 0 for no effect and ±100 for the full control effect; potency is the fitted concentration of half-maximal effect; tags give direction and shape of the fitted curve.
SMILES,Potency,"activity change, negative = inhibition"
Cn1c(C(=O)NCc2ccco2)cc2c(=O)[nH]c3ccccc3c21,"inconclusive [inhibitor, partial curve]",
O=C1CCc2cc(NS(=O)(=O)c3ccccc3)cc3c2N1CC3,"inconclusive [inhibitor, single point]",
Cc1ccc(CNc2nc(-c3cccnc3)nc3ccccc23)cc1,active: 6.57 µM,
CN(C)CCCN(C(=O)c1ccc(N2C(=O)CCC2=O)cc1)c1nc2c(F)cccc2s1,,inactive: 9.27%
O=C(C1COc2ccccc2O1)N1CCN(c2ccc(F)cc2)CC1 (centres undefined),"inconclusive [inhibitor, single point]",
O=c1[nH]nc(Cc2ncc(C(F)(F)F)cc2Cl)c2ccccc12,,inactive: 8.88% [at 0.00184 µM]
COc1ccc(/C=C2\SC(=O)N(CC(=O)NCCCn3ccnc3)C2=O)cc1,,inactive: 84.6%
CCOC(=O)c1c(C)[nH]c(C2=NNC(=Nc3ccccc3OC)SC2)c1C,"inconclusive [inhibitor, single point]",
CS(=O)(=O)Nc1ccc(C(=O)Nc2ccc(S(=O)(=O)N3CCCC3)cc2)cc1,"inconclusive [inhibitor, single point]",
Cc1ccc(NC(=O)c2sc3nc4c(c(-c5ccco5)c3c2N)CCC4)cc1,"inconclusive [inhibitor, single point]",
COc1cc(/C=N/NC(=O)CCN2CCN(C(c3ccccc3)c3ccccc3)CC2)ccc1O,"inconclusive [inhibitor, single point]",
COc1cccc(CNC(=O)Cc2ccc(-n3c(=O)[nH]c4ccccc4c3=O)cc2)c1,,inactive: 12.4%
CCN(CC)S(=O)(=O)c1cc(NC(=O)COC(=O)c2ccc(NC(=O)CC#N)cc2)ccc1C,,inactive: 0.962%
N#Cc1nc(-c2cccs2)oc1NCc1ccccc1,"inconclusive [inhibitor, single point]",
O=C(Nc1ccccc1F)c1ccc(-n2cncn2)nc1,"inconclusive [inhibitor, partial curve, poor fit]",
CC(C)Cc1nc(N2CCCCC2)c(C#N)c2c1CCC2,,inactive: 40%
O=C(NC1CCCCC1)C1CCCN(S(=O)(=O)c2ccc(Br)s2)C1 (centres undefined),"inconclusive [inhibitor, single point]",
O=C(COc1coc(CN2CCc3ccccc32)cc1=O)Nc1cccc(F)c1,"inconclusive [inhibitor, single point]",
O=C(c1ccc(Cl)cc1)C1C2C(=O)N(c3ccccc3)C(=O)C2C2CCCN21 (centres undefined),"inconclusive [inhibitor, single point]",
